From publication PMC7819943, “Rice protein-binding microarrays: a tool to detect cis-acting elements near promoter regions in rice” come the findings set out here.

This is one part of the list.

In the assay the target is T1, OsWOX13 (Oryza sativa, UniProt Q5QMM3 1-267).
T1 sequence: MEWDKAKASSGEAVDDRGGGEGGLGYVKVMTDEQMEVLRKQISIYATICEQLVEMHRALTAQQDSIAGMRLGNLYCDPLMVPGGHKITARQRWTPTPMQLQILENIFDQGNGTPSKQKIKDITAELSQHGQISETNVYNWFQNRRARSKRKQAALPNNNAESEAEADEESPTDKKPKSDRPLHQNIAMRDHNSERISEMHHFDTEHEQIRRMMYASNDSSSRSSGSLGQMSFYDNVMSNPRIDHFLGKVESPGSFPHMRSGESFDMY
Put plainly: protein-binding microarray (RPBM); PBS, 2% BSA, 51.3 ng/ul salmon testes DNA, 50 uM zinc acetate, 200 nM TF, 25 C, 1 h; high values mean tight binding. To be noted: protein: recombinant; tags: N-terminal polyhistidine and DsRed monomer fusion (pET32a); label: CyDye5-dUTP incorporated in the synthesized complementary strand; 3' TTTTT single-stranded linker to array surface; dsDNA, one strand shown. The essentials:
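The binding signal is fluorescence intensity per feature, in arbitrary units, read on an Axon 4000B scanner. Polyhistidine- and DsRed-tagged transcription factors (N-terminal fusions) from E. coli BL21-CodonPlus were purified on Ni–NTA and applied at 200 nM for 1 h at 25 °C to a double-stranded, BSA-blocked custom Agilent array in buffer with 50 µM zinc acetate.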
Regarding “GAAATTAAGAGAAATCAATCGAGATCATGATGATATTAGACGGAGTCACCTAGTGCAG”, the binding signal was 5790 fluorescence intensity (a.u.).

As for “TTCTCTTGATTTGCACCAGCATTTTCTTAGGGTCATTTATCGGAGTCACCTAGTGCAG”, the binding signal was 12200 fluorescence intensity (a.u.).

Turning to “CAGCGTGATGAGTTGTTAACAACCATCTTGTTTATTCTGACGGAGTCACCTAGTGCAG”, the binding signal was 4510 fluorescence intensity (a.u.).

For the sequence “TAAATTGCGCAAAATTTATTCACGTAGATTAAGAGTCCATCGGAGTCACCTAGTGCAG”, the binding signal is 10700 fluorescence intensity (a.u.).

“CTAGATTCATTAACATTTAAATGAATGTGGGCAATGCTAGCGGAGTCACCTAGTGCAG”: the binding signal is 11200 fluorescence intensity (a.u.).

On to “ATTAATTCTAATATTAATTGTGTGCCAATGAAATTTACTACGGAGTCACCTAGTGCAG”, for which the binding signal was 14000 fluorescence intensity (a.u.).

On to “TGTGATTACAAGTAGCTTTTAACAGGGACAAGCTAGCTGTCGGAGTCACCTAGTGCAG”, for which the binding signal is 15400 fluorescence intensity (a.u.).

In the case of “CAGATGATTAGTAATGTTAATTATGAATAAACTTGCACGCCGGAGTCACCTAGTGCAG”, the binding signal was 51800 fluorescence intensity (a.u.).

As for “ATATTTAATTATTGTAAACTTGAAAGATGGATTTATTCGACGGAGTCACCTAGTGCAG”, the binding signal is 8590 fluorescence intensity (a.u.).

As for “GTAAATTTCGCTATATTTTAATAAAATTTAATACAGATTACGGAGTCACCTAGTGCAG”, the binding signal is 3290 fluorescence intensity (a.u.).

As for “CGAAGTGACTATCTATTAATGAGGCAAACATAAGTTTTGGCGGAGTCACCTAGTGCAG”, the binding signal is 3930 fluorescence intensity (a.u.).

Take “TGGTTGATAGCTACGTCACAAACGTCACACTGATCAAAGTCGGAGTCACCTAGTGCAG”: the binding signal was 3220 fluorescence intensity (a.u.).

“GGCCAAATTAACTCGTACTACGAACTGGTAGCCACGAGGCCGGAGTCACCTAGTGCAG”: the binding signal was 9920 fluorescence intensity (a.u.).

On to “GTCTAAATGTACATAATAGAACGTTCTGAAAGTAAGGCGGCGGAGTCACCTAGTGCAG”, for which the binding signal was 8360 fluorescence intensity (a.u.).

For the sequence “TTATCTAATCTACGATCTGATTGCACCCCTAAATTCGTTACGGAGTCACCTAGTGCAG”, the binding signal is 14400 fluorescence intensity (a.u.).

For the sequence “GGGTGCTGATTGCATCGTGAAAACAACACTATCAATAGACCGGAGTCACCTAGTGCAG”, the binding signal was 16600 fluorescence intensity (a.u.).

Regarding “TTTTAATTTTGACGTGAACTAAACACACCCTTACACAAGGCGGAGTCACCTAGTGCAG”, the binding signal was 21000 fluorescence intensity (a.u.).

For the sequence “CTCACCCATTCTAATTATTTAATATTAGGTCATTCTCCAACGGAGTCACCTAGTGCAG”, the binding signal is 5360 fluorescence intensity (a.u.).

In the case of “ATGTAAATCAATTGTTTAGTGTTGGATCTATAAGCAACATCGGAGTCACCTAGTGCAG”, the binding signal is 4370 fluorescence intensity (a.u.).

“GGTCAATCCATGTGCAATTACATTACCTAGTAAAATAAAACGGAGTCACCTAGTGCAG”: the binding signal is 4600 fluorescence intensity (a.u.).

Turning to “TTTGAGTCTAATTATGCCATGATTGGACAATGTGATGCTACGGAGTCACCTAGTGCAG”, the binding signal was 39200 fluorescence intensity (a.u.).

With “TAAACTAATTATTCTGTTGTGCAGTGTACCATTTACATGTCGGAGTCACCTAGTGCAG”, the binding signal was 21700 fluorescence intensity (a.u.).

Consider “TGGACATTGACAAAATCACAGATCCAGTAAGTACTAGTATCGGAGTCACCTAGTGCAG”, for which the binding signal was 3170 fluorescence intensity (a.u.).

“ATAGGAATATAATTTATAAATAACTGATATTTGGAATTAGCGGAGTCACCTAGTGCAG”: the binding signal was 9280 fluorescence intensity (a.u.).

Take “TATCACTGATGGACCTGTGATTCTCTGTCTGGCAGATACTCGGAGTCACCTAGTGCAG”: the binding signal was 4900 fluorescence intensity (a.u.).

With “GTTAATTTCTTGAGATCCTGACAATCTGGTATCAGAGCCTCGGAGTCACCTAGTGCAG”, the binding signal was 15400 fluorescence intensity (a.u.).

“GTATTGTACGCTTAACGCGTTAATTACTCGCTGATTGACACGGAGTCACCTAGTGCAG”: the binding signal was 15800 fluorescence intensity (a.u.).

“GACAACTAATTAATGAATAAACTAATGTAAATCCACTTGTCGGAGTCACCTAGTGCAG”: the binding signal is 27300 fluorescence intensity (a.u.).

As to “GTGCAAATTTATTCCGTATAATTTGGAAGGATATATCTTGCGGAGTCACCTAGTGCAG”, the binding signal was 15900 fluorescence intensity (a.u.).

With “TTATAATTTAATCCGGCTCTAAATTTCAGCCCCGCCGTTGCGGAGTCACCTAGTGCAG”, the binding signal is 14100 fluorescence intensity (a.u.).

In the case of “ATGTATAAATTGAAATACCACTGATGCATTTTACTCTGTTCGGAGTCACCTAGTGCAG”, the binding signal is 23500 fluorescence intensity (a.u.).

For “AATGATCTAAACTATTTAATCATATAGTTGTGCCATCATTCGGAGTCACCTAGTGCAG”, the binding signal is 8810 fluorescence intensity (a.u.).

As to “TTAAATGTAATTCTTTATATTTTAACTTTATGCTAACCGTCGGAGTCACCTAGTGCAG”, the binding signal was 4880 fluorescence intensity (a.u.).

For “TCGCCTCTTAAATTAATCAAAACAGTCGACTTCTCAACCTCGGAGTCACCTAGTGCAG”, the binding signal is 3370 fluorescence intensity (a.u.).

Consider “TATAATATAGTAATTACCGTATTTCTAAATATGTCGATATCGGAGTCACCTAGTGCAG”, for which the binding signal is 9170 fluorescence intensity (a.u.).

Regarding “ATTAATCACATCATCAATTTCCAAACTCATTCTGTCCGTTCGGAGTCACCTAGTGCAG”, the binding signal was 9040 fluorescence intensity (a.u.).

On to “TAAATAGAATCTGAATGATAATTAAGAGGAGGGACGACGACGGAGTCACCTAGTGCAG”, for which the binding signal was 5670 fluorescence intensity (a.u.).

Regarding “ACAATAATGGAATTACAGCCGCTGGCTTAGCTAGTTGCTCCGGAGTCACCTAGTGCAG”, the binding signal is 7420 fluorescence intensity (a.u.).

Consider “ACGTTTTAAATAGGTTAAATTTGATTATACTTCCTCCGTCCGGAGTCACCTAGTGCAG”, for which the binding signal was 5900 fluorescence intensity (a.u.).

With “ATTTCTTTCCTTTGACTGTCAATTTGTAAAAGTTTATATACGGAGTCACCTAGTGCAG”, the binding signal is 11800 fluorescence intensity (a.u.).

“CTGCTCTTTTCATTTACAAATCATGTCCTCATGTTGCAGTCGGAGTCACCTAGTGCAG”: the binding signal was 3290 fluorescence intensity (a.u.).

As to “ACTGCTAATTAATTGCACATGCATCATGGAAAACATGAAGCGGAGTCACCTAGTGCAG”, the binding signal is 35800 fluorescence intensity (a.u.).
